Test in all cases: Primary Screen for Target Class Profiling of Small Molecule Inhibitors of Methyltransferases
In assay [1] the target is Glycine N-methyltransferase (Homo sapiens) (UniProt Q14749). The following applies: purified enzyme, MTase-Glo SAH luminescence; measured here: GNMT inhibition; at 40 µM; stronger effect = lower value. The essentials:
(§1)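 Each enzyme was assayed with SAM and its substrate. SAH formation detected by MTase-Glo luminescence; single-point 40 uM screen[…].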

The target in assay [2] is Guanidinoacetate N-methyltransferase (Homo sapiens) (UniProt Q14353). The following applies: purified enzyme, MTase-Glo SAH luminescence; measured here: GAMT inhibition; at 40 µM; stronger effect = lower value. The method, boiled down:
as §1

Assay [3] has as its target Histamine N-methyltransferase (Homo sapiens) (UniProt P50135). The following applies: purified enzyme, MTase-Glo SAH luminescence; measured here: HNMT inhibition; at 40 µM; stronger effect = lower value. The essentials:
as §1

In assay [4] the target is Nicotinamide N-methyltransferase (Homo sapiens) (UniProt P40261). The following applies: purified enzyme, MTase-Glo SAH luminescence; measured here: NNMT inhibition; at 40 µM; stronger effect = lower value. The essentials:
as §1

Assay [5] addresses Phenylethanolamine N-methyltransferase (Homo sapiens) (UniProt P11086). The following applies: purified enzyme, MTase-Glo SAH luminescence; measured here: PNMT inhibition; at 40 µM; stronger effect = lower value. The method, boiled down: as §1

The list shows a part of the results. Further columns of the screen follow, without active or inactive calls.
On the % scale 0 is the no-effect control and ±100 the full control effect.

In the case of `Cc1ccc(Cn2c(=O)c3ccc(C(=O)NCC(C)C)cc3n3c(=O)n(C)nc23)cc1`, the activity change, negative = inhibition is -1.15% in assay [1]; 4.16% in assay [2]; 0.571% in assay [3]; 2.5% in assay [4]; 1.33% in assay [5].

For `CCc1cc2c(cc3n2CC(C)(C(=O)NC2CCCCC2)N(CCN2CCN(C)CC2)C3=O)s1` (configuration not stated), the activity change, negative = inhibition was 3.51% in assay [1]; 0.56% in assay [2]; 4.94% in assay [3]; 10.7% in assay [4]; 3.79% in assay [5].

For `CC(=O)OC12COC1CC(O)C1(C)C(=O)C(O)C3=C(C)C(OC(=O)C(O)C(NC(=O)OC(C)(C)C)c4ccccc4)CC(O)(C(OC(=O)c4ccccc4)C21)C3(C)C` (configuration not stated), the activity change, negative = inhibition in assay [1] was -0.484%; in assay [3], 0.205%.

For `COCC(=O)N1CCC(O)(c2csc(CN3CCc4ccccc4C3)n2)CC1`, the activity change, negative = inhibition was -4.15% in assay [1]; -1.75% in assay [2]; -1.76% in assay [3]; 1.95% in assay [4]; 0.934% in assay [5].

As to `CCOc1ccc(N2C(=O)c3cc4sc(CC)cc4n3CC2(C)C(=O)NC2CCC(C)CC2)cc1` (configuration not stated), the activity change, negative = inhibition in assay [1] is 5.45%; in assay [2] it was 0.614%; in assay [3] it was 10.1%; in assay [4], 6.11%; in assay [5] it was 2.48%.

Regarding `CC(C)CCNC(=O)C1(C)Cn2c(cc3ccccc32)C(=O)N1Cc1cccc(F)c1` (configuration not stated), the activity change, negative = inhibition in assay [1] was 3.45%; in assay [2], 1.13%; in assay [3], 2.44%; in assay [4] it was 0.788%; in assay [5] it was -2.96%.

Regarding `C[C@@H]1CN(C(=O)c2ccc3c(c2)N(C)C(=O)CO3)C[C@@]1(O)C1CCC1`, the activity change, negative = inhibition was -2.35% in assay [1]; -1.62% in assay [2]; -0.266% in assay [3]; -1.28% in assay [4]; 2.09% in assay [5].

For the compound `Cc1cc(C)cc(NC(=O)CCc2nnc3n(Cc4ccc(Cl)cc4)c(=O)c4ccccc4n23)c1`, the activity change, negative = inhibition in assay [1] was -0.712%; in assay [2], 1.23%; in assay [3], 7.71%; in assay [4], 6.5%; in assay [5], 0.736%.

`C[C@H](NC(c1cccc2[nH]c(=O)c(=O)[nH]c12)P(=O)(O)O)c1ccc(Br)cc1` (some centres not stated): the activity change, negative = inhibition is 1.73% in assay [1]; 8.66% in assay [2]; 1.28% in assay [3]; -10.8% in assay [4]; -3.69% in assay [5].

Regarding `OC[C@H]1O[C@@H](OCCc2ccccc2)[C@H](O[C@@H]2OC[C@](O)(CO)[C@H]2O)[C@@H](O)[C@@H]1O`, the activity change, negative = inhibition in assay [1] is 4.67%; in assay [2] it was 3.69%; in assay [3], -0.536%; in assay [4], -8.81%; in assay [5], 3.71%.

For the compound `CCCOCCNC(=O)c1c(C)noc1-c1ccc(OC(F)(F)F)cc1`, the activity change, negative = inhibition was 0.012% in assay [1]; -0.196% in assay [2]; 0.694% in assay [3]; -0.106% in assay [4]; 6.59% in assay [5].

Consider `COc1cc(Nc2nc(SCC(=O)NCCC(C)C)nc3ccccc23)cc(OC)c1`, for which the activity change, negative = inhibition in assay [1] was -5.65%; in assay [2] it was 3.18%; in assay [3], -7.25%; in assay [4], -14%; in assay [5] it was -5.78%.

With `CCOC(=O)c1cc2n(n1)CC(C)(C(=O)NCc1ccc(F)cc1)N(c1ccc(C)cc1C)C2=O` (configuration not stated), the activity change, negative = inhibition in assay [1] is -4.62%; in assay [2] it was 0.327%; in assay [3], -8.53%; in assay [4] it was -10.3%; in assay [5], -4.76%.

On to `Cc1cccc(Cn2nc3n(C)c(=O)c4ccc(C(=O)NC5CCCCC5)cc4n3c2=O)c1`, for which the activity change, negative = inhibition in assay [1] stood at 2.5%; in assay [2], 0%; in assay [3], 6.4%; in assay [4] it was 6.53%; in assay [5] it was 4.83%.

As to `CC(C)Cn1c(=O)c2ccccc2n2c(CCC(=O)NCCc3ccc(Cl)cc3)nnc12`, the activity change, negative = inhibition in assay [1] was -11.7%; in assay [2], 2.74%; in assay [3], -0.821%; in assay [4] it was -30%; in assay [5], -4.78%.

`Cc1cccc(-c2nnn3c2nc(NCc2ccc(F)cc2)c2ccccc23)c1`: the activity change, negative = inhibition in assay [1] was -1.95%; in assay [2], 0%; in assay [3], 1.4%; in assay [4], 4.92%; in assay [5], -3.28%.

On to `Cc1cc(C(=O)N[C@H]2[C@H](O)[C@H](O)C[C@@H]2c2cccnc2)n(C)n1`, for which the activity change, negative = inhibition in assay [1] was -3.93%; in assay [2] it was -7.03%; in assay [3], -4.28%; in assay [4] it was -4.59%; in assay [5], -4.65%.

As to `CCCN1C(=O)c2c(C(=O)NCc3cccc(C)c3)ncn2CC1(C)C(=O)NCc1ccc(OC)cc1` (configuration not stated), the activity change, negative = inhibition in assay [1] was 1.58%; in assay [2], 0%; in assay [3], -0.061%; in assay [4], 7.44%; in assay [5] it was 5.2%.

Regarding `C[C@]1(O)CCN(C(=O)c2cccc(Cn3cccn3)c2)C[C@@H]1O`, the activity change, negative = inhibition in assay [1] was -5.05%; in assay [2], -8.24%; in assay [3] it was -2.21%; in assay [4] it was -7.48%; in assay [5], -5.22%.

`CC(=O)Nc1ccc(CC(=O)N2CCC3(CCc4nn(Cc5ccccc5)c(=O)n4CC3)CC2)cc1`: the activity change, negative = inhibition was -2.16% in assay [1]; 0.014% in assay [2]; 3.1% in assay [3]; -2.93% in assay [4]; 1.6% in assay [5].

For `CS(=O)(=O)N1CCC(C2CCN(C(=O)NC3CCCC3)C2)CC1` (configuration not stated), the activity change, negative = inhibition in assay [1] is 2.75%; in assay [2], -2.19%; in assay [3], 1.62%; in assay [4], -3.08%; in assay [5] it was -8.32%.

With `Cc1ccc(NC(=O)Cn2c(=O)oc3cc(S(=O)(=O)N4CCCC4)ccc32)c(Cl)c1`, the activity change, negative = inhibition in assay [1] was 1.06%; in assay [2], -1.94%; in assay [3], 9.15%; in assay [4], 13.9%; in assay [5], 0.339%.

In the case of `CCN(CC)CCNC(=O)c1cc(S(C)(=O)=O)ccc1OC`, the activity change, negative = inhibition is 12.2% in assay [1]; 12.1% in assay [2]; 7.58% in assay [3]; -7.03% in assay [4]; 0.962% in assay [5].

In the case of `CC1CC(C)CN(S(=O)(=O)c2ccc3c(c2)oc(=O)n3CC(=O)N2CCc3ccccc32)C1` (configuration not stated), the activity change, negative = inhibition in assay [1] is 1.81%; in assay [2], -1.74%; in assay [3], 6.85%; in assay [4] it was -0.846%; in assay [5], -7.65%.

As to `O=C(Nc1ccccc1Cl)N1Cc2c(sc3c2CCCC3)-n2cccc2C1c1ccccc1` (configuration not stated), the activity change, negative = inhibition in assay [1] worked out at 2.1%; in assay [2] it was 0%; in assay [3], 2.6%; in assay [4], 1.5%; in assay [5] it was 4.41%.

As to `CCO[C@@H]1OC(=O)C[C@@H]1NC(=O)[C@@H]1CCCN1C(=O)[C@@H](NC(=O)c1ccc(N)c(Cl)c1)C(C)(C)C`, the activity change, negative = inhibition in assay [1] was 3.29%; in assay [2] it was -3.13%; in assay [3], -0.075%; in assay [4] it was -15.2%; in assay [5], -5.74%.

On to `O=C(NCCc1ccccn1)c1cccnc1OC1CCNCC1`, for which the activity change, negative = inhibition was -1.46% in assay [1]; -4.17% in assay [2]; -4.28% in assay [3]; -4.45% in assay [4]; -6.93% in assay [5].

Regarding `O=C(CCCN1CC=C(n2c(=O)[nH]c3ccccc32)CC1)c1ccc(F)cc1`, the activity change, negative = inhibition was -25.9% in assay [1]; -0.579% in assay [2]; 2.34% in assay [3]; -17.5% in assay [4]; -20.2% in assay [5].

For `COc1cccc(NC(=O)c2cc3n(n2)CC(C)(C(=O)NC2CCCCCC2)N(C)C3=O)c1` (configuration not stated), the activity change, negative = inhibition turned out to be 2.07% in assay [1]; 0% in assay [2]; 4.3% in assay [3]; 2.69% in assay [4]; 2.17% in assay [5].

Source of the values: PubChem BioAssay AID1745853 (National Center for Advancing Translational Sciences (NCATS), 2022).
